Source: PubChem BioAssay AID485360 (National Center for Advancing Translational Sciences (NCATS), 2010)
Hit rate of the full screen: of about 230,000 compounds, about 1,500 (0.65%) were called active. The shares of active, inactive and inconclusive entries below differ from those in the screen. Calls follow the shape of the dose curve; as a rule, active = well fitted inhibition curve with a large enough effect; inconclusive = small, poorly fitted or top-dose-only effect; inactive = no such curve, though single readings can be large or run the other way. Potencies beside an inconclusive call are fits to weak or partial responses and may not hold up.

What follows are compounds tested against Lethal(3)malignant brain tumor-like protein 1 (Homo sapiens) (UniProt Q9Y468) (assay: qHTS Assay for the Inhibitors of L3MBTL1). Settings: AlphaScreen L3MBTL1–H3K9me1 peptide binding; activity, negative = inhibition: at 57.1 µM (top of the series).
Chain of UniProt Q9Y468 (Q9Y468 whole entry, looked up): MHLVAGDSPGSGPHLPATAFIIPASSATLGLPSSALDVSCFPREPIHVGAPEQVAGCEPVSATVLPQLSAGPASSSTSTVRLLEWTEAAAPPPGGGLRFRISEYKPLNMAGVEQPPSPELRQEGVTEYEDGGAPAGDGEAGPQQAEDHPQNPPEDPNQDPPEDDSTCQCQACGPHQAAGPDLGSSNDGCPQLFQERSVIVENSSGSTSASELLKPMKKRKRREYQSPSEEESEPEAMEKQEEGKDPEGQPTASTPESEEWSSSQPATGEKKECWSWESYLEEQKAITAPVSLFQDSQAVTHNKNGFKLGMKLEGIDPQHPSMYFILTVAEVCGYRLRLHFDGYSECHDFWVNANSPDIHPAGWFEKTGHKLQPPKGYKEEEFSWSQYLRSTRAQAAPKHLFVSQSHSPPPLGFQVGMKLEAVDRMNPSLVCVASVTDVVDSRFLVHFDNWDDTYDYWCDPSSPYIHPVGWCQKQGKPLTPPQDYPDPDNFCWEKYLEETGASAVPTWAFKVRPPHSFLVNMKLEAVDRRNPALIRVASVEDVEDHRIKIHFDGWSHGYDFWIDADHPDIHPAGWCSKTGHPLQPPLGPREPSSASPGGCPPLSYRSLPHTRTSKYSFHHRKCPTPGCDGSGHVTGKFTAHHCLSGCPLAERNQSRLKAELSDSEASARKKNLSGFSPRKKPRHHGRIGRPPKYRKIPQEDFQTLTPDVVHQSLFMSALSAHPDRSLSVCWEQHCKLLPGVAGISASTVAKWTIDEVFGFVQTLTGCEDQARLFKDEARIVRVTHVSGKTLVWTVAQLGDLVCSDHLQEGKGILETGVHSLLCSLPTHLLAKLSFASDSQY
Procedure, shortened: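 AlphaScreen assay: L3MBTL1 (50 nM final) was preincubated 30 min at room temperature with biotinylated H3(1-15)K9me1 peptide (75 nM final), then 30 min with library compounds; streptavidin donor and nickel chelate acceptor beads (10 ug/mL final) added, 30 min dark.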
% is scaled to controls: 0 for no effect and ±100 for the full control effect; potency is read from the fitted curve at half-maximal effect; tags tell the direction and shape of the fitted curve.
Also: nearly all actives have a fitted effect of over 60% in size.

SMILES	Potency	activity, negative = inhibition
Cc1nnc2c3ccccc3c(Cl)nn12	inconclusive: 10 µM [inhibitor, partial curve]	–
Cc1ccccc1C(=O)OCn1nnc2ccccc2c1=O	inconclusive: 39.8 µM [inhibitor, single point]	–
Cc1ccsc1/C=N/Nc1nc2ccccc2[nH]1	–	inactive: -16.1%
O=[N+]([O-])c1ccc2nc(SCc3cn4cc(Cl)ccc4n3)[nH]c2c1	–	inactive: -23.3%
O=C(O)/C(=C/c1ccco1)NC(=O)c1ccccc1	inconclusive: 28.2 µM [inhibitor, single point]	–
CCOC(=O)c1oc2ccc(CNC3CCCCC3)c(Cl)c2c1C	–	inactive: 7.23%
CCOC(=O)c1c(-c2ccc(-c3ccccc3)cc2)csc1NC(=O)C1C2CCC(O2)C1C(=O)O (stereo unspecified)	–	inactive: 0.738%
Cc1cccc(OCc2n[nH]c(=S)o2)c1	–	inactive: 3.39%
c1ccc(Nc2ccccc2Nc2ccccn2)nc1	–	inactive: -9.19%
CC1Cc2ccccc2N1CC(=O)Nc1ccc(N2CCOCC2)cc1 (stereo unspecified)	inconclusive: 44.7 µM [inhibitor, partial curve, poor fit]	–
CCOc1ccc(NC(=O)CSc2ncnc3c2sc2ccccc23)cc1	inconclusive: 6.31 µM [inhibitor, single point]	–
CCCCC(=O)NC(c1ccc(Cl)cc1Cl)c1ccc2cccnc2c1O (stereo unspecified)	–	inactive: 1.52%
CCOc1ccc(OCC)c(S(=O)(=O)NCc2cccnc2)c1	inconclusive: 39.8 µM [inhibitor, single point]	–
O=C(O)c1cnn2c(C(F)(F)F)cc(-c3ccco3)nc12	–	inactive: -6.26%
CCOC(=O)c1[nH]c(C)c(C(=O)N2CCc3c([nH]c4ccccc34)C2c2ccccn2)c1C (stereo unspecified)	inconclusive: 14.1 µM [inhibitor, partial curve]	–
O=C1OCCC1Sc1nc2ccccc2c(=O)n1Cc1ccc(F)cc1 (stereo unspecified)	inconclusive: 39.8 µM [inhibitor, single point]	–
CC(=O)C(C(C)=O)C1(O)C(=O)c2ccccc2C1=O	inconclusive: 31.6 µM [inhibitor, single point]	–
Cc1onc(-c2ccccc2)c1C(=O)Nc1sc2c(c1C(N)=O)CCC2	inconclusive: 28.2 µM [inhibitor, single point]	–
Cc1cccc(N2CCN(S(=O)(=O)c3ccc4c(c3)C(C)(C)C(=O)N4C)CC2)c1C	inconclusive: 31.6 µM [inhibitor, single point]	–
CCOc1ccc(Nc2c3ccccc3nc3ccccc23)cc1	inconclusive: 7.08 µM [inhibitor, partial curve]	–
CN(C)/C=C1\C(=O)N(C)N=C1C(F)(F)F	inconclusive: 3.16 µM [inhibitor, full curve]	–
